# The other results are listed elsewhere or left out.
# B1: a L Fucosidase (Streptosporangium roseum), D2B1P1_STRRD (protein)
# chain: MRRKLLLVPAVGLLVIGSIFATQPVASADTPPVYEPTVESLNSHPVPQWFNDDKFGIFIHWGAYSVPAWGPRGSYAEWYGNYMNAGGSATNAHHKATYGQDFNYDAFLQQWKAEKFDPADWVKLFKDAGAKYFVLTSKHHEGMALWDSKSSGRDSVDLGPGRDLAKELFDAARKDEAKLKAGFYYSLYEWYNPAYTGRPATNPYTGAEIPYTGAPGGGDYVKDYMLPQMRELIDGYDPDIIWCDGQWEKPASYWNTAGVIADYYNKALNSGKEVAVANRCKIQSGNLDSPELDFQTPEYTVKPDIDPVKWESSRGIAHSYGYNQNEPEEDHLTSDQLVDSLVDIVSKNGNLLLDIGPKADGTIPEIQRQRLLDIGAWLKANGEAIYGTTYWNRAEEKGGPDDVRYTAKDATLYATALKWPGEQLTLGADLPVDHSTRITMLGSGARLSWSRDEQGRVVVNTPQEAGKHAYVFKIETPGVRSLLRTSSSLAKEIAPGRTISGELTVTNPGKRHTPATKLSLTVPQGWTATLGAPRVRPLGPGESVKVPISVSAPEGVAPAPYTLGLYQRTGRMGTTTALPLTVNRPNLSLGKPATQKSTGYDAPASRAVDGNTGGDWSAGSTTHTAEPEKQAWWQVDLGASARLDSVDVWNRLDCCADRLKDFWVMASDQPFTTDDLDQARTAPGVTAVHVGEQAGSPSKVKLPEGTRGRYVRIQLASPSNPLSLAEVQVRGSMARPNLSLGKPATQKSTGYDAPASRAVDGNTGGDWSAGSTTHTAEPEKQAWWQVDLGASARLDSVDVWNRLDCCADRLKDFWVMASDQPFTTDDLDQARTAPGVTAVHVGEQAGSPSKVKLPEGTRGRYVRIQLASPSNPLSLAEVQVRLEHHHHHHS
# Assays:
# Experiment in all cases: glycan array binding signal (z-score within array); higher = stronger binding
# Conditions in all cases: glycan notation: IUPAC condensed, linker removed
# [1] = target: Fuc(a1-2)Gal
# Method in brief: (§1)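 The binding signal is a Z-score computed within each array. Data were drawn from 3228 arrays in the Consortium for Functional Glycomics database, restricted to those with a known protein sequence. Scores were averaged over arrays of the same protein sequence at different concentrations or buffers, and over linkers, and negative values can be taken as non-binding.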
# [2] = target: Fuc(a1-2)Gal(b1-3)GalNAc
# Method in brief: as §1
# [3] = target: Fuc(a1-2)Gal(b1-3)GalNAc(a1-3)[Fuc(a1-2)]Gal(b1-4)Glc
# Method in brief: as §1
# [4] = target: Fuc(a1-2)Gal(b1-3)GalNAc(a1-3)[Fuc(a1-2)]Gal(b1-4)GlcNAc
# Method in brief: as §1
# [5] = target: Fuc(a1-2)Gal(b1-3)GalNAc(b1-3)Gal
# Method in brief: as §1
# [6] = target: Fuc(a1-2)Gal(b1-3)GalNAc(b1-3)Gal(a1-4)Gal(b1-4)Glc
# Method in brief: as §1
# [7] = target: Fuc(a1-2)Gal(b1-3)GalNAc(b1-4)[Neu5Ac(a2-3)]Gal(b1-4)Glc
# Method in brief: as §1
# [8] = target: Fuc(a1-2)Gal(b1-3)GlcNAc
# Method in brief: as §1
# [9] = target: Fuc(a1-2)Gal(b1-3)GlcNAc(b1-2)Man(a1-3)[Fuc(a1-2)Gal(b1-3)GlcNAc(b1-2)Man(a1-6)]Man(b1-4)GlcNAc(b1-4)GlcNAc
# Method in brief: as §1
# [10] = target: Fuc(a1-2)Gal(b1-3)GlcNAc(b1-2)Man(a1-3)[Fuc(a1-2)Gal(b1-3)GlcNAc(b1-2)Man(a1-6)]Man(b1-4)GlcNAc(b1-4)[Fuc(a1-6)]GlcNAc
# Method in brief: as §1
# [11] = target: Fuc(a1-2)Gal(b1-3)GlcNAc(b1-3)Gal(b1-4)Glc
# Method in brief: as §1
# [12] = target: Fuc(a1-2)Gal(b1-3)GlcNAc(b1-3)GalNAc
# Method in brief: as §1
# [13] = target: Fuc(a1-2)Gal(b1-3)GlcNAc(b1-3)[Fuc(a1-2)Gal(b1-3)GlcNAc(b1-6)]GalNAc
# Method in brief: as §1
# [14] = target: Fuc(a1-2)Gal(b1-3)GlcNAc(b1-3)[Gal(b1-4)GlcNAc(b1-6)]Gal(b1-4)Glc
# Method in brief: as §1
# [15] = target: Fuc(a1-2)Gal(b1-3)GlcNAc(b1-3)[Neu5Ac(a2-6)Gal(b1-4)GlcNAc(b1-6)]Gal(b1-4)Glc
# Method in brief: as §1
# [16] = target: Fuc(a1-2)Gal(b1-3)GlcNAc6S
# Method in brief: as §1
# [17] = target: Fuc(a1-2)Gal(b1-3)[Fuc(a1-4)]GlcNAc
# Method in brief: as §1
# [18] = target: Fuc(a1-2)Gal(b1-3)[Fuc(a1-4)]GlcNAc(b1-2)Man(a1-3)[Fuc(a1-2)Gal(b1-3)[Fuc(a1-4)]GlcNAc(b1-2)Man(a1-3)]Man(b1-4)GlcNAc(b1-4)GlcNAc
# Method in brief: as §1
# [19] = target: Fuc(a1-2)Gal(b1-3)[Fuc(a1-4)]GlcNAc(b1-2)Man(a1-3)[Fuc(a1-2)Gal(b1-3)[Fuc(a1-4)]GlcNAc(b1-2)Man(a1-6)]Man(b1-4)GlcNAc(b1-4)[Fuc(a1-6)]GlcNAc(b1-4)[Fuc(a1-6)]GlcNAc
# Method in brief: as §1
# [20] = target: Fuc(a1-2)Gal(b1-3)[Fuc(a1-4)]GlcNAc(b1-3)[Fuc(a1-3)[Gal(b1-4)]GlcNAc(b1-6)]Gal(b1-4)Glc
# Method in brief: as §1
# [21] = target: Fuc(a1-2)Gal(b1-3)[Fuc(a1-4)]GlcNAc(b1-3)[Gal(b1-4)GlcNAc(b1-6)]Gal(b1-4)Glc
# Method in brief: as §1
# [22] = target: Fuc(a1-2)Gal(b1-4)Fuc(a1-3)]GlcNAc(b1-2)Man(a1-3)[Fuc(a1-2)Gal(b1-4)[Fuc(a1-3)]GlcNAc(b1-2)Man(a1-6)]Man(b1-4)GlcNAc(b1-4)GlcNAc
# Method in brief: as §1
# [23] = target: Fuc(a1-2)Gal(b1-4)Glc
# Method in brief: as §1
# [24] = target: Fuc(a1-2)Gal(b1-4)Glc6S
# Method in brief: as §1
# [25] = target: Fuc(a1-2)Gal(b1-4)GlcNAc
# Method in brief: as §1
# [26] = target: Fuc(a1-2)Gal(b1-4)GlcNAc(b1-2)Man
# Method in brief: as §1
# [27] = target: Fuc(a1-2)Gal(b1-4)GlcNAc(b1-2)Man(a1-3)[Fuc(a1-2)Gal(b1-4)GlcNAc(b1-2)Man(a1-6)]Man(b1-4)GlcNAc(b1-4)GlcNAc
# Method in brief: as §1
# [28] = target: Fuc(a1-2)Gal(b1-4)GlcNAc(b1-2)Man(a1-3)[Fuc(a1-2)Gal(b1-4)GlcNAc(b1-2)Man(a1-6)]Man(b1-4)GlcNAc(b1-4)[Fuc(a1-6)]GlcNAc
# Method in brief: as §1
# [29] = target: Fuc(a1-2)Gal(b1-4)GlcNAc(b1-2)[Fuc(a1-2)Gal(b1-4)GlcNAc(b1-4)]Man(a1-3)[Fuc(a1-2)Gal(b1-4)GlcNAc(b1-2)Man(a1-6)]Man(b1-4)GlcNAc(b1-4)GlcNAc
# Method in brief: as §1
# [30] = target: Fuc(a1-2)Gal(b1-4)GlcNAc(b1-3)Gal(b1-4)GlcNAc
# Method in brief: as §1
# [31] = target: Fuc(a1-2)Gal(b1-4)GlcNAc(b1-3)Gal(b1-4)GlcNAc(b1-2)Man(a1-3)[Fuc(a1-2)Gal(b1-4)GlcNAc(b1-3)Gal(b1-4)GlcNAc(b1-2)Man(a1-6)]Man(b1-4)GlcNAc(b1-4)GlcNAc
# Method in brief: as §1
# [32] = target: Fuc(a1-2)Gal(b1-4)GlcNAc(b1-3)Gal(b1-4)GlcNAc(b1-3)Gal(b1-4)GlcNAc
# Method in brief: as §1
# [33] = target: Fuc(a1-2)Gal(b1-4)GlcNAc(b1-3)GalNAc
# Method in brief: as §1
# [34] = target: Fuc(a1-2)Gal(b1-4)GlcNAc(b1-3)[Fuc(a1-2)Gal(b1-4)GlcNAc(b1-6)]GalNAc
# Method in brief: as §1
# [35] = target: Fuc(a1-2)Gal(b1-4)GlcNAc(b1-3)[Fuc(a1-3)[Gal(b1-4)]GlcNAc(b1-6)]Gal(b1-4)Glc
# Method in brief: as §1
# [36] = target: Fuc(a1-2)Gal(b1-4)GlcNAc(b1-6)GalNAc
# Method in brief: as §1
# [37] = target: Fuc(a1-2)Gal(b1-4)GlcNAc6S
# Method in brief: as §1
# [38] = target: Fuc(a1-2)Gal(b1-4)[Fuc(a1-3)]GlcNAc
# Method in brief: as §1
# [39] = target: Fuc(a1-2)Gal(b1-4)[Fuc(a1-3)]GlcNAc(b1-2)Man(a1-3)[Fuc(a1-2)Gal(b1-4)[Fuc(a1-3)]GlcNAc(b1-2)Man(a1-6)]Man(b1-4)GlcNAc(b1-4)[Fuc(a1-6)]GlcNAc
# Method in brief: as §1
# [40] = target: Fuc(a1-2)Gal(b1-4)[Fuc(a1-3)]GlcNAc(b1-2)[Fuc(a1-2)Gal(b1-4)[Fuc(a1-3)]GlcNAc(b1-4)]Man(a1-3)[Fuc(a1-2)Gal(b1-4)[Fuc(a1-3)]GlcNAc(b1-2)Man(a1-6)]Man(b1-4)GlcNAc(b1-4)GlcNAc
# Method in brief: as §1
# [41] = target: Fuc(a1-2)Gal(b1-4)[Fuc(a1-3)]GlcNAc(b1-3)Gal(b1-4)[Fuc(a1-3)]GlcNAc
# Method in brief: as §1
# [42] = target: Fuc(a1-2)Gal(b1-4)[Fuc(a1-3)]GlcNAc(b1-3)Gal(b1-4)[Fuc(a1-3)]GlcNAc(b1-3)Gal(b1-4)[Fuc(a1-3)]GlcNAc
# Method in brief: as §1
# [43] = target: Fuc(a1-2)Gal(b1-4)[Fuc(a1-3)]GlcNAc(b1-3)GalNAc
# Method in brief: as §1
# [44] = target: Fuc(a1-2)Gal(b1-4)[Fuc(a1-3)]GlcNAc(b1-3)[Neu5Ac(a2-6)Gal(b1-4)GlcNAc(b1-6)]Gal(b1-4)Glc
# Method in brief: as §1
# [45] = target: Fuc(a1-2)Gal3S(b1-4)GlcNAc
# Method in brief: as §1
binder,measurement,setting,value
B1,glycan array binding signal (z-score),[1],4.93
same,glycan array binding signal (z-score),[2],-0.499
same,glycan array binding signal (z-score),[3],0.337
same,glycan array binding signal (z-score),[4],-0.191
same,glycan array binding signal (z-score),[5],0.024
same,glycan array binding signal (z-score),[6],0.066
same,glycan array binding signal (z-score),[7],-0.366
same,glycan array binding signal (z-score),[8],-0.423
same,glycan array binding signal (z-score),[9],0.052
same,glycan array binding signal (z-score),[10],0.217
same,glycan array binding signal (z-score),[11],-0.268
same,glycan array binding signal (z-score),[12],0.064
same,glycan array binding signal (z-score),[13],-0.371
same,glycan array binding signal (z-score),[14],-0.173
same,glycan array binding signal (z-score),[15],-0.56
same,glycan array binding signal (z-score),[16],-0.381
same,glycan array binding signal (z-score),[17],-0.463
same,glycan array binding signal (z-score),[18],1.01
same,glycan array binding signal (z-score),[19],-0.039
same,glycan array binding signal (z-score),[20],-0.305
same,glycan array binding signal (z-score),[21],-0.388
same,glycan array binding signal (z-score),[22],0.398
same,glycan array binding signal (z-score),[23],0.656
same,glycan array binding signal (z-score),[24],2.06
same,glycan array binding signal (z-score),[25],1.83
same,glycan array binding signal (z-score),[26],2.47
same,glycan array binding signal (z-score),[27],0.014
same,glycan array binding signal (z-score),[28],0.372
same,glycan array binding signal (z-score),[29],0.229
same,glycan array binding signal (z-score),[30],0.709
same,glycan array binding signal (z-score),[31],9.35
same,glycan array binding signal (z-score),[32],4.15
same,glycan array binding signal (z-score),[33],0.031
same,glycan array binding signal (z-score),[34],1.24
same,glycan array binding signal (z-score),[35],-0.506
same,glycan array binding signal (z-score),[36],4.78
same,glycan array binding signal (z-score),[37],-0.38
same,glycan array binding signal (z-score),[38],3.89
same,glycan array binding signal (z-score),[39],3.58
same,glycan array binding signal (z-score),[40],0.785
same,glycan array binding signal (z-score),[41],9.04
same,glycan array binding signal (z-score),[42],5.04
same,glycan array binding signal (z-score),[43],-0.291
same,glycan array binding signal (z-score),[44],-0.409
same,glycan array binding signal (z-score),[45],-0.258

# — the supplement of paper PMC8728848
